The other results are listed elsewhere or left out. The full chains were built here from the parent and the listed change. Inactive controls read about 0.05.
B1: TEV protease; numbered along this chain (parent)
chain: MGESLFKGPRDYNPISSSICHLTNESDGHTTSLYGIGFGPFIITNKHLFRRNNGTLVVQSLHGVFKVKDTTTLQQHLVDGRDMIIIRMPKDFPPFPQKLKFREPQREERICLVTTNFQTKSMSSMVSDTSCTFPSGDGIFWKHWIQTKDGQCGSPLVSTRDGFIVGIHSASNFTNTNNYFTSVPKNFMELLTNQEAQQWVSGWRLNADSVLWGGHKVFMVKPEEPFQPVKEATQL

Variants of: B1
Assay: raw area under fraction-flipped curve 0-4 h after induction (AUC4h, not background-subtracted), DNA-recorder readout of cleavage of the substrate (dimensionless); higher = more cleavage of the substrate by the protease variant
Conditions: temperature: 34 °C; time window: 0-4 h after rhamnose induction
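Also: Bxb1 expression induced with 0.2% (w/v) L-rhamnose at OD600 near 0.5, cultures sampled hourly, flipped fraction per protease–substrate barcode pair counted by paired-end Illumina sequencing.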

Row | Variant | area with substrate ENLAFQS | area with substrate ENLEFQS | area with substrate ENLFFQS | area with substrate ENLGFQS | area with substrate ENLLFQS | area with substrate ENLMFQS | area with substrate ENLNFQS | area with substrate ENLQFQS | area with substrate ENLRFQS | area with substrate ENLSFQS | area with substrate ENLCFQS | area with substrate ENLDFQS | area with substrate ENLHFQS | area with substrate ENLKFQS | area with substrate ENLVFQS | area with substrate ENLWFQS | area with substrate ENLIFQS | area with substrate ENLPFQS | area with substrate ENLTFQS
1 | MGESLFKGPRDYNPISSSICHLTNESDGHTTSLYGIGFGPFIITNKHLFRRNNGTLVVQSLHGVFKVKDTTTLQQHLVDGRDMIIIRMPKDFPPFPQKLKFREPQREERICLVTTNFQTKSMSSMVSDTSCTFPSGDGIFWKHWIQTKDGQCGSPLVSTRDGFIVGIHSASNFTNTNNYFTSVPKNFMELLTNQEAQQWVSGWRLNADSVLWGGHKVFMVKPEEPAQPVKEATQL [F226A] | 0.0579 | 0.068 | 0.0835 | 0.0502 | 0.0852 | 0.0826 | 0.0621 | 0.0342 | 0.0823 | 0.0622 | – | – | – | – | – | – | – | – | –
2 | MGESLFKGPRDYNPISSSICHLTNESDGHTTSLYGIGFGPFIITNKHLFRRNNGTLVVQSLHGVFKVKDTTTLQQHLVDGRDMIIIRMPKDFPPFPQKLKFREPQREERICLVTTNFQTKSMSSMVSDTSCTFPSGDGIFWKHWIQTKDGQCGSPLVSTRDGFIVGIHSASNFTNTNNYFTSVPKNFMELLTNQEAQQWVSGWRLNADSVLWGGHKVFMVKPEEPKQPVKEATQL [F226K] | 0.0626 | 0.0618 | 0.0951 | – | – | 0.0793 | 0.065 | – | 0.0831 | 0.0667 | 0.081 | 0.0603 | 0.0661 | 0.0668 | 0.0238 | 0.0671 | – | – | –
3 | MGESLFKGPRDYNPISSSICHLTNESDGHTTSLYGIGFGPFIITNKHLFRRNNGTLVVQSLHGVFKVKDTTTLQQHLVDGRDMIIIRMPKDFPPFPQKLKFREPQREERICLVTTNFQTKSMSSMVSDTSCTFPSGDGIFWKHWIQTKDGQCGSPLVSTRDGFIVGIHSASNFTNTNNYFTSVPKNFMELLTNQEAQQWVSGWRLNADSVLWGGHKVFMVKPEEPFTPVKEATQL [Q227T] | 0.0716 | – | 0.0822 | – | – | 0.065 | – | 0.0706 | – | – | 0.0639 | 0.0789 | 0.036 | 0.0687 | – | – | 0.172 | 0.0423 | –
4 | MGESLFKGPRDYNPISSSICHLTNESDGHTTSLYGIGFGPFIITNKHLFRRNNGTLVVQSLHGVFKVKDTTTLQQHLVDGRDMIIIRMPKDFPPFPQKLKFREPQREERICLVTTNFQTKSMSSMVSDTSCTFPSGDGIFWKHWIQTKDGQCGSPLVSTRDGFIVGIHSASNFTNTNNYFTSVPKNFMELLTNQEAQQWVSGWRLNADSVLWGGHKVFMVKPEEPFQPVLEATQL [K230L] | 0.074 | 0.0665 | 0.0751 | – | 0.0573 | – | 0.0642 | – | – | 0.0669 | – | 0.0599 | 0.0609 | 0.0702 | 0.0594 | 0.066 | 0.0693 | 0.0629 | –
5 | MGESLFKGPRDYNPISSSICHLTNESDGHTTSLYGIGFGPFIITNKHLFRRNNGTLVVQSLHGVFKVKDTTTLQQHLVDGRDMIIIRMPKDFPPFPQKLKFREPQREERICLVTTNFQTKSMSSMVSDTSCTFPSGDGIFWKHWIQTKDGQCGSPLVSTRDGFIVGIHSASNFTNTNNYFTSVPKNFMELLTNQEAQQWVSGWRLNADSVLWGGHKVFMVKPEEPFQPVTEATQL [K230T] | 0.0625 | 0.0756 | 0.0907 | 0.0605 | 0.0793 | 0.101 | 0.0625 | – | 0.0768 | 0.0662 | 0.0614 | 0.0587 | 0.092 | 0.0749 | 0.0812 | 0.0626 | 0.0871 | 0.0605 | –
6 | MGESLFKGPRDYNPISSSICHLTNESDGHTTSLYGIGFGPFIITNKHLFRRNNGTLVVQSLHGVFKVKDTTTLQQHLVDGRDMIIIRMPKDFPPFPQKLKFREPQREERICLVTTNFQTKSMSSMVSDTSCTFPSGDGIFWKHWIQTKDGQCGSPLVSTRDGFIVGIHSASNFTNTNNYFTSVPKNFMELLTNQEAQQWVSGWRLNADSVLWGGHKVFMVKPEEPFQPVKEATRL [Q234R] | 0.0696 | – | 0.0855 | 0.0573 | 0.0855 | – | 0.0725 | – | 0.0513 | 0.0854 | 0.0844 | 0.0382 | 0.0526 | 0.0657 | – | 0.0566 | 0.118 | 0.0546 | –
7 | MGSSLFKGPRDYNPISSSICHLTNESDGHTTSLYGIGFGPFIITNKHLFRRNNGTLVVQSLHGVFKVKDTTTLQQHLVDGRDMIIIRMPKDFPPFPQKLKFREPQREERICLVTTNFQTKSMSSMVSDTSCTFPSGDGIFWKHWIQTKDGQCGSPLVSTRDGFIVGIHSASNFTNTNNYFTSVPKNFMELLTNQEAQQWVSGWRLNADSVLWGGHKVFMVKPEEPFQPVKEATQL [E3S] | – | – | 0.0943 | 0.0448 | 0.0845 | – | 0.0688 | – | 0.0739 | 0.0468 | 0.0784 | – | – | 0.0773 | – | – | 0.0952 | 0.045 | –
8 | MGESLFKVPRDYNPISSSICHLTNESDGHTTSLYGIGFGPFIITNKHLFRRNNGTLVVQSLHGVFKVKDTTTLQQHLVDGRDMIIIRMPKDFPPFPQKLKFREPQREERICLVTTNFQTKSMSSMVSDTSCTFPSGDGIFWKHWIQTKDGQCGSPLVSTRDGFIVGIHSASNFTNTNNYFTSVPKNFMELLTNQEAQQWVSGWRLNADSVLWGGHKVFMVKPEEPFQPVKEATQL [G8V] | – | – | – | – | – | – | – | – | – | 0.0847 | 0.0657 | 0.0755 | – | – | – | – | – | – | –
9 | MGESLFKGGRDYNPISSSICHLTNESDGHTTSLYGIGFGPFIITNKHLFRRNNGTLVVQSLHGVFKVKDTTTLQQHLVDGRDMIIIRMPKDFPPFPQKLKFREPQREERICLVTTNFQTKSMSSMVSDTSCTFPSGDGIFWKHWIQTKDGQCGSPLVSTRDGFIVGIHSASNFTNTNNYFTSVPKNFMELLTNQEAQQWVSGWRLNADSVLWGGHKVFMVKPEEPFQPVKEATQL [P9G] | – | – | 0.089 | – | – | 0.0768 | – | 0.0384 | – | 0.0568 | 0.0497 | 0.0518 | 0.104 | – | – | 0.0664 | 0.0835 | 0.0596 | –
10 | MGESLFKGPRDYNSISSSICHLTNESDGHTTSLYGIGFGPFIITNKHLFRRNNGTLVVQSLHGVFKVKDTTTLQQHLVDGRDMIIIRMPKDFPPFPQKLKFREPQREERICLVTTNFQTKSMSSMVSDTSCTFPSGDGIFWKHWIQTKDGQCGSPLVSTRDGFIVGIHSASNFTNTNNYFTSVPKNFMELLTNQEAQQWVSGWRLNADSVLWGGHKVFMVKPEEPFQPVKEATQL [P14S] | – | 0.0583 | 0.0955 | – | 0.0694 | – | 0.0744 | 0.0986 | 0.0751 | 0.0748 | 0.0688 | 0.0681 | 0.0655 | 0.0825 | – | 0.0658 | 0.088 | 0.058 | 0.0685

Source: the supplement of paper PMC12217912
